# Measurements as given in the supplement of paper PMC3334620.
# Over roughly 33,000 sequences, “E-score (-0.5 to 0.5)” has its median near -0.036; the highest 2% begin near 0.37. Some of the results follow.
# Molecular target: T1, Yer064c (UniProt P40041)
# T1 sequence: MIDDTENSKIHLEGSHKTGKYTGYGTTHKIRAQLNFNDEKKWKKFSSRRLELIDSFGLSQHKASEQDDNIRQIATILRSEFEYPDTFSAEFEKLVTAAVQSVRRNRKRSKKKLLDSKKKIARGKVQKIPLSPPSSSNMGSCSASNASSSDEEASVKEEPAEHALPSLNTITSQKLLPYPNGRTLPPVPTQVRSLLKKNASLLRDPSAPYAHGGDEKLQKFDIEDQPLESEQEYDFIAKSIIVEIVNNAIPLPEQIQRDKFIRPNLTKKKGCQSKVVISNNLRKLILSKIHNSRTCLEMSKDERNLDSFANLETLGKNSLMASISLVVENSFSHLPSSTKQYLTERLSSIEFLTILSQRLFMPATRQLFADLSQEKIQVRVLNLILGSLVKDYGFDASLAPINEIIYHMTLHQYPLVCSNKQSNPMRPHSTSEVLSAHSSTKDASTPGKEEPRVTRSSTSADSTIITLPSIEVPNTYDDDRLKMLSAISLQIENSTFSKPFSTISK
# Assay: PBM E-score (8-mer binding enrichment) (E-score (-0.5 to 0.5)); higher = stronger / more preferred TF binding; most listed sequences are background and not binding sites
# Conditions: protein concentration: 200 nM; construct: GST-full length
# Method in brief: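 For each ungapped eight-base word taken together with its reverse complement, the Universal PBM Analysis Suite assigned an E-score. Binding data came from GST-tagged yeast transcription factors, applied at about 100-200 nM, on universal all-10-mer Agilent arrays made double-stranded by primer extension. Fluorescent anti-GST marked bound protein, and scans were normalised with masliner.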
row,Sequence,PBM E-score
1,CAATCTTA,0.11
2,ACTTTCCC,-0.192
3,CTTGTTTA,0.141
4,GTATGCCA,-0.283
5,CCGTGATC,0.00687
6,ACCTTGCA,-0.235
7,ACCAGCGG,-0.133
8,ATGGATTA,0.121
9,ACATGGCT,0.163
10,AGTTGGTG,-0.119
11,CCTCATAA,-0.0646
12,ACAACCAC,0.131
13,CCACCGGA,-0.00039
14,GCGGCGAC,-0.0157
15,ATCATTGC,0.154
16,TGATACCA,-0.215
17,AGACAAGC,-0.272
18,CTTCGGAC,0.145
19,CGTAGCAC,-0.0396
20,AAACGCTC,-0.148
21,AAATCGAC,0.0698
22,AATTGGGT,0.0392
23,GAGAGATC,-0.146
24,TCGATGCA,-0.151
25,CTGACGTC,0.0382

row,Sequence,PBM E-score
1,ATCGCCCA,-0.0429
2,AGCCGGCG,-0.103
3,GTAGAGCA,-0.0431
4,TCCGTAAA,-0.117
5,ACACGACA,0.106
6,ACAACGAT,0.0529
7,CCCTCGGA,-0.0577
8,CAGGCCGA,-0.102
9,CTTCTCAC,-0.119
10,CGACCCAG,-0.182
11,TCTGACCA,0.162
12,CCTCGCAC,0.00701
13,ACTCTGGG,0.0199
14,AGCGCTCG,-0.0635
15,CAAGCTGA,0.161
16,CCCTGTGC,-0.285
17,GATGTTGA,0.102
18,CTTCCTTA,0.0831
19,AAGGGGCA,-0.281
20,ACCCTACT,-0.145
21,GGGGTTTA,-0.106
22,CAGTTGCC,-0.0655
23,CTGATCTC,0.00456
24,CAAATCTC,0.0434
25,GCACAACC,-0.239

row,Sequence,PBM E-score
1,ATTATGGA,0.0375
2,AAATGGGT,0.144
3,AGTTTCGG,-0.0508
4,GAAACGCC,-0.172
5,TGCAGCAA,-0.158
6,GAGGCATC,-0.198
7,AGACAGGA,0.0826
8,CCGGGGGA,-0.14
9,ATGCAATG,0.0179
10,ATCGCTGC,-0.0877
11,CTTAAGAA,0.155
12,AAACGGAC,-0.106
13,GAGCCTGC,-0.24
14,GCGTTGGA,-0.18
15,ATGAGCCC,-0.00355
16,CCAGCCTC,-0.117
17,CATTATAC,0.0626
18,CTCATTCA,0.0925
19,TCATGTCA,0.186
20,CCAAGTCC,-0.198
21,AAGGCGCC,-0.187
22,TAAAGCCA,0.149
23,CTGGGATC,-0.29
24,GCCCGGAA,-0.21
25,CAGAATAG,-0.116

row,Sequence,PBM E-score
1,ACGTCCTG,-0.348
2,ACAAGGCT,-0.128
3,CTAACATC,-0.0438
4,TACTCCGA,0.0904
5,CCACCGCG,-0.114
6,TACGTCGA,0.0248
7,AATCGTCC,0.171
8,CCAGTGAG,0.0497
9,CCTGTCCA,-0.253
10,CGATGCCC,-0.221
11,CGGTGCGA,-0.0551
12,AATTGGAA,-0.036
13,ATTGGAGA,-0.103
14,CCAGACGG,-0.17
15,ACAACTCA,0.143
16,AGGCTATC,-0.0226
17,AATTCGAT,0.0314
18,GTACTCAA,0.314
19,ACGTGGGA,-0.00359
20,AGAGGTTA,0.0375
21,AATCACCG,0.42
22,TGCCGAAA,-0.144
23,CCGCTATA,-0.157
24,AATAGGAA,0.0751
25,GTAGCCAA,-0.0169

row,Sequence,PBM E-score
1,CGCTGGCC,-0.279
2,CCAGAGAG,-0.025
3,CGAGAGTA,0.0908
4,AGCAGCTG,0.0489
5,AGTATAAG,0.062
6,CGACAGTC,0.18
7,GTAGGCGA,-0.0574
8,AAACCGTT,-0.267
9,ATAAGATA,-0.0333
10,CAGTGTGC,-0.179
11,ACACTCCG,-0.136
12,CAGAGTGA,0.0239
13,AGGATGGC,0.014
14,CTCATTGA,0.167
15,AAGACCAC,-0.0481
16,AACTCGAT,0.103
17,CGATAACG,-0.134
18,CATGCATC,0.133
19,ACCAAAAT,-0.0446
20,CTCAAGTA,-0.0168
21,ACCCCCCC,-0.237
22,ACCCCGGC,-0.128
23,CAGATACA,0.0747
24,AGGCCAGC,-0.279
25,GATAACGC,-0.24

row,Sequence,PBM E-score
1,CCTGCGGA,-0.0576
2,TAGGTACA,-0.0989
3,CAACATCA,0.062
4,CGCTGCCA,-0.121
5,AGCAGACG,-0.223
6,ACGTTTAT,0.00313
7,CCACGATC,0.0277
8,GTCTTTGA,0.116
9,GATGAGGA,-0.19
10,ATTCGAGC,0.00455
11,GTATGAAA,-0.0135
12,TATAGACA,0.121
13,AGGCGTTC,-0.237
14,GGATTGAA,0.102
15,GGGGGTAA,-0.23
16,GGGGGGGA,-0.0347
17,AAGTAACG,0.0322
18,ACAGGGTA,-0.193
19,AAGTTAGT,0.306
20,GGGGACAA,-0.164
21,CACGAGTA,0.0787
22,AACTACTG,-0.0219
23,GAATACGA,0.0413
24,TCACATGA,0.269
25,AGTTGCGC,-0.246

row,Sequence,PBM E-score
1,ATAGACAA,-0.107
2,ATGGATAG,0.1
3,AACAGGGT,-0.202
4,CCCCTGCC,-0.204
5,AGTTTAAT,0.163
6,AATCTAAG,0.0952
7,TCTTGGCA,0.129
8,AAACCGCT,-0.0915
9,CCTGAGCC,-0.0314
10,ACATGGTC,0.0496
11,CCAACATC,-0.138
12,ACACGTCT,0.0645
13,AAACGAGC,-0.17
14,CTACACCA,-0.052
15,CTTGTACA,-0.114
16,ATTCACCA,0.0678
17,CGTTCTGC,-0.0876
18,CTCGGCAC,-0.148
19,ACGTGTGG,-0.0723
20,AAGGCTAC,-0.0556
21,ACCAAGCC,-0.0298
22,AGTTGTGG,0.108
23,CCCAGAAA,0.00184
24,TAGCCGGA,0.0623
25,GGGCAAAC,-0.227

row,Sequence,PBM E-score
1,GACGCCAA,-0.217
2,AACGACAG,-0.0481
3,GAAGAGTA,0.0801
4,CGGGAACA,-0.049
5,CCAAGCTA,-0.0602
6,AAATAGAG,0.0644
7,CCGATTTA,0.00468
8,ACCTAAGA,0.0483
9,AGGAATAA,-0.0382
10,ATACCATG,0.061
11,ACAAATCT,-0.0329
12,GGCTCGCA,-0.116
13,ACCCTGCC,-0.154
14,GCACAATA,-0.00738
15,ATTGGAAG,0.0397
16,ATGTATCC,-0.0288
17,GATGCGAA,0.00178
18,TGTCGAAA,0.0448
19,AGAAACTG,-0.00757
20,GGCAATAA,0.0181
21,CTCCTGCC,-0.113
22,CGACTTAA,0.232
23,CGAACTGC,-0.181
24,AGTAAGGG,-0.00318
25,ATCTAGTG,0.0154

row,Sequence,PBM E-score
1,CAATAGTG,0.0438
2,GGTGGAGA,-0.114
3,CAGATTGA,0.107
4,CTGGTGAC,0.194
5,GGAAAGCA,-0.12
6,GATCAAGC,0.0352
7,AGGGGTGG,-0.0803
8,CAAGACTG,0.175
9,CCGCCAAG,-0.149
10,CACACGTG,0.021
11,GAGCACCA,-0.092
12,CATCCGTA,0.0341
13,ACAAGACG,-0.027
14,CGCCTGGC,-0.0853
15,GAAGGTGA,0.0997
16,ACTACTGA,0.316
17,AGTGCTTC,-0.031
18,GGGATGAA,-0.0864
19,AAAACTTC,-0.129
